Laboratory results from patent US11478477B2, “Method for treating cancer by combination of FAK/ALK/ROS1 inhibitor and EGFR inhibitor” (ASCENTAGE PHARMA (SUZHOU) CO., LTD., priority 2018, dated 2022).

What was measured:
[1] = test system: human NCI-H1975 xenograft tumor model; experiment: Example 7: Compound 5 or Ensartinib with AZD9291 in xenograft tumor model; assay type: in vivo, mouse; conditions: Compound 5 50 mg/kg; Ensartinib 20 mg/kg; AZD9291 2 mg/kg; orally, once per day, 21 days
Text: The dosage regimen was as follows:

[2] = test system: human EGFR^T790M-mutant NCI-H1975 lung cancer xenograft tumor model; conditions: for RTV on Day 15 after administration (mean ± standard error) / T/C on Day 15 after administration (%): Compound 5 100 mg/kg, AZD9291 2 mg/kg, orally, once per day, 15 days
[3] = test system: human NCI-H1975 xenograft tumor model; experiment: Example 6: Compound 5 or Defactinib with AZD9291 in xenograft tumor model; assay type: in vivo, mouse; conditions: Compound 5 50 mg/kg; Defactinib 50 mg/kg; AZD9291 2 mg/kg; orally, once per day, 22 days
Text: The dosing regimen was as follows:

Row | SMILES | T/C on Day 21 after administration (%) [1] | RTV on Day 15 after administration (mean ± standard error) [2] | T/C on Day 15 after administration (%) [2] | Tumor status on Day 15 after administration (regression rate, %) [2] | T/C on Day 22 after administration (%) [3] | RTV on Day 22 after administration (mean ± standard error) [3]
1 | C=CC(=O)Nc1cc(Nc2nccc(-c3cn(C)c4ccccc34)n2)c(OC)cc1N(C)CCN(C)C [AZD9291, osimertinib] | 24.4% | 2.1 ± 0.3 | 12.0% | (17%) | 19.8% | –
2 | Cc1cc(Nc2ncc(Cl)c(Nc3ccccc3S(=O)(=O)C(C)C)n2)c(OC(C)C)cc1C1=CCN(C2CCOCC2)CC1 [Compound 5, 5-chloro-N^2-(2-isopropoxy-5-methyl-4-(1-(tetrahydro-2H-pyran-4-yl)-1,2,3,6-tetrahydropyridin-4-yl)phenyl)-N^4-(2-(isopropylsulfonyl)phenyl)pyrimidine-2,4-diamine] | 80% | 9.6 ± 1.9 | 57.0% | 0% | 70.6% | 9.6 ± 4.0
3 | CNC(=O)c1ccc(Nc2ncc(C(F)(F)F)c(NCc3nccnc3N(C)S(C)(=O)=O)n2)cc1 [Defactinib] | – | – | – | – | 63.2% | 8.6 ± 1.1
4 | C[C@@H]1CN(C(=O)c2ccc(NC(=O)c3cc(O[C@H](C)c4c(Cl)ccc(F)c4Cl)c(N)nn3)cc2)C[C@H](C)N1 [Ensartinib] | 61.3% | – | – | – | – | –
